Reference: PubChem BioAssay AID488969 (Vanderbilt High Throughput Screening Facility, 2010)
The full ranking holds about 110,000 compounds; the median of “z-score” is about -0.1, and the highest 2% start at about 2. This is one part of the list. Activity calls are given as the source filed them.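 Rule for the calls: active = z-score in the third read window above 3 or below -3; inactive = the rest.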

Target: Metabotropic glutamate receptor 8 (Rattus norvegicus) (UniProt P70579)
Assay: rat mGluR8 modulators via GIRK flux, primary screen, cell-based, thallium flux, HTS (AID 488969)
Settings: HEK293 rat mGluR8, GIRK (G protein-gated inwardly rectifying potassium channel) thallium flux, FluoZin2; at 10 µM; stronger effect = higher value; submaximal glutamate (EC20) added with thallium

Sequence of UniProt P70579 (P70579 whole entry, looked up): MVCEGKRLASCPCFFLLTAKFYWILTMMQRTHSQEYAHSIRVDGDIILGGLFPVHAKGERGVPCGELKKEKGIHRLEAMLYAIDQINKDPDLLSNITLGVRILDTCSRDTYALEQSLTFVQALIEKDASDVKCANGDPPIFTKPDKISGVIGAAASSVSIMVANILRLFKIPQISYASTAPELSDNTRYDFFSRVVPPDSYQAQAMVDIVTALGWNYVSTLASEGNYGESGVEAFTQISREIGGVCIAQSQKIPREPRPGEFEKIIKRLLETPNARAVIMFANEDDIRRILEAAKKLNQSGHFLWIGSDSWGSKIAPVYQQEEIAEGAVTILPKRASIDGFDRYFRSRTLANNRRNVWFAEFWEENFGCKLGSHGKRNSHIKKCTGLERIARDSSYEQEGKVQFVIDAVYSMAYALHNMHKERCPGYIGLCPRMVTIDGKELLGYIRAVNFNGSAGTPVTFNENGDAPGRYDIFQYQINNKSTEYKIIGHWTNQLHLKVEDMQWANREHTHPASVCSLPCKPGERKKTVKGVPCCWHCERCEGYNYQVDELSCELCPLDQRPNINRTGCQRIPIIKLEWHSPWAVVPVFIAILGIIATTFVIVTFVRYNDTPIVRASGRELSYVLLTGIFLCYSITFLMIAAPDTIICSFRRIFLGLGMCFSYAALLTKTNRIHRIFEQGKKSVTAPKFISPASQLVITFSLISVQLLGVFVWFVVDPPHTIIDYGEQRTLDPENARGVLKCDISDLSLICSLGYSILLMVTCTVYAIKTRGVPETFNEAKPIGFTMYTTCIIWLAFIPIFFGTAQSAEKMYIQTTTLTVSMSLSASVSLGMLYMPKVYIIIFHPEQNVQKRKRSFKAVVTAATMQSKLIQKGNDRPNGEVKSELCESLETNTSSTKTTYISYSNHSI

SMILES	z-score
Cc1ccc(-n2nc(C)c(C(=O)O)n2)c(C)c1	0.0362
Cc1ccc(/C=C/C(=O)OC(C)C(=O)Nc2ccc(Cl)cn2)o1 (configuration not stated)	0.397
COC(CNC(=S)Nc1ccc([N+](=O)[O-])cc1)OC	0.338
O=C(Nc1ccccc1Cl)N1CCn2c(nc3ccccc32)C1	0.0418
COCCOc1cnn(-c2cc(Oc3ccc(C)cc3)ncn2)c(=O)c1Cl	-0.318
CCCC[n+]1ccn(-c2nc3ccccc3nc2[N-]S(=O)(=O)c2ccc(C)cc2)c1	0.155
CCn1cc(CNC(=O)CCSc2nc(-c3ccco3)cc(C(F)(F)F)n2)cn1	-0.23
Cc1cccn2c(=O)c3cc(C(=O)NCCc4ccccc4)c(=N)n(CCCn4ccnc4)c3nc12	-0.136
Cc1ccccc1/C=N/NC(=O)Cn1nnc(N)n1	1.38
O=C(c1ccc(NS(=O)(=O)c2ccccc2)cc1)N1CCCC1	-0.18
Cc1nn(CC#N)c(=O)n1-c1cccc(F)c1	-0.292
CCCCn1c(Nc2ccccc2)nc2ccccc21	0.15
CCOC(=O)c1[nH]c(C)c(C(=O)OCc2c(C)noc2C)c1C	0.625
CCn1c(SCC(=O)NCC2CCCO2)nnc1-c1c[nH]c2ccccc12 (configuration not stated)	0.0169
CCCC(c1nnnn1Cc1ccco1)N1CCN(c2cc(Cl)ccc2C)CC1 (configuration not stated)	0.152
COc1cc(OC)c(C2C(C(=O)O)c3ccccc3C(=O)N2C)cc1OC (configuration not stated)	-0.0582
O=C(NC1CCCCCC1)C1c2ccccc2C(=O)N1CCCN1CCOCC1 (configuration not stated)	-0.316
COc1ccccc1N1CCN(C(=O)c2cc(C3CC3)on2)CC1	0.123
CCCCOc1ccc(C2OC34CCCCC3C(C#N)(C#N)C2(C#N)C(=N)O4)cc1 (configuration not stated)	0.317
CC(C)CC(NC(=O)C(CC(C)C)NC(=O)OC(C)(C)C)C(=O)O (configuration not stated)	-0.332
Cc1ccnc(N2C(=O)c3cccc4c([N+](=O)[O-])ccc(c34)C2=O)c1	1.07
CCOC(=O)N1CCN(C(=O)COc2ccc(Cl)cc2)CC1	-0.44
O=C(O)c1ccc(S(=O)(=O)N2CCCCCC2)cc1	-0.192

SMILES	z-score
O=c1cc(O)c(-c2cccc(Cl)c2)c(Cl)[nH]1	-0.757
CS(=O)(=O)c1ccc(N2CCOCC2)c(S(C)(=O)=O)c1	-0.213
COc1cc(CNn2cnnc2)ccc1OCC(=O)NC1CCCCC1	0.0541
CSC1=NCCN1C(=O)c1cccs1	1.93
COc1cccc(CN2CCN(C(=O)c3ccco3)CC2)c1OC	0.242
CCCCOc1ccc(CN(CCO)CCO)cc1[N+](=O)[O-]	-0.499
Cc1[nH]c2ccccc2c1C(=O)CNc1nccs1	-0.301
COc1ccc(S(=O)(=O)N2CCN(c3ccccn3)CC2)cc1OC	0.269
O=C(CC(=O)c1ccccc1O)c1cccc(F)c1	active: 3.63
CN1CCCC(OC(=O)CCCC(=O)OC2CCCN(C)C2)C1 (configuration not stated)	-0.15
O=C1N(c2ccc(Cl)c(Cl)c2)CN(Cc2ccccc2)CN1n1cnnc1	-0.237
CC(C)CCn1c(S(=O)(=O)O)nc2ccccc21	active: 3.16
S=C(Nc1ccc(OCc2ccccc2)cc1)Nc1cccc(Cl)c1Cl	0.844
COc1cc(CNCCN2CCOCC2)ccc1OCc1ccccc1Cl	0.465
Cc1ccc(-c2noc(CCC(=O)NCCN3CCN(Cc4ccccc4)CC3)n2)cc1	-0.696
CN(CC(=O)Nc1ccc(F)c(F)c1F)C1CCCCC1	0.326
Cc1nnc(SCC(=O)N(Cc2ccccc2)C(C)C)n1-c1ccccc1	-0.101
CC(C)C(=O)NC(=S)Nc1ccc(S(=O)(=O)N(C)Cc2ccccc2)cc1	0.833
FCCCOc1ccc(-c2nccc(-c3ccc(Br)cc3)n2)cc1	-0.0253
O=C(Nc1ccccc1)c1ccc2c(c1)OCCO2	-0.878
Nc1c(C(=O)NC2CCCC2)c2nc3ccccc3nc2n1/N=C/c1ccco1	-0.834
Cc1ccc(C(=O)c2cc([N+](=O)[O-])ccc2N2CCCCC2)c(C)c1	-1.24
CCc1ccccc1-n1c(SCC(=O)NC)nnc1-c1cccnc1	0.0375

SMILES	z-score
CCOC(=O)C1CCCN(S(=O)(=O)c2cc(OCC(=O)NC3CCCCC3)c(C)cc2Cl)C1 (configuration not stated)	-0.186
CCc1ccc(CNc2ccc3c(c2)ncn3C)cc1	0.65
N#Cc1ccccc1NC(=O)COC(=O)CCc1ccc(S(=O)(=O)N2CCCCC2)cc1	-0.355
CCC(C)(C)NC(=O)c1ccc(S(=O)(=O)N(C)c2ccccc2OC)cc1	0.503
Cc1ccnc(NC(=O)CCC2COc3ccccc3O2)c1 (configuration not stated)	-0.046
CS(=O)(=O)N1CCCC(C(=O)NCCCN2CCc3ccccc3C2)C1 (configuration not stated)	0.487
O=C(Nc1ccc(S(=O)(=O)Nc2ccc(Cl)cc2)cc1)C1CCCO1 (configuration not stated)	-0.353
CCc1nc(Nc2ccncc2)c2oc3ccccc3c2n1	-1.25
O=C1C2C(C(=O)N1/N=C/c1ccc(N3CCCCC3)o1)C1C=CC2C12CC2 (configuration not stated)	1.52
O=C(C1CCCN(S(=O)(=O)c2cccc3cccnc23)C1)N1CCc2ccccc21 (configuration not stated)	-1.2
O=S(=O)(c1cccc(NC(=S)N2CCN(c3ccccc3)CC2)c1)C(F)F	-0.245
CCOc1ccc2[nH]c(=O)c(CN(CCc3ccccc3)C(=O)N3CCCC3)cc2c1	-0.15
CN(C)c1ccc(/C=N\S(=O)(=O)c2ccccc2)cc1	-0.0575
COc1ccc(/C=C/C(=O)NCc2cn(C)nc2C)cc1COc1ccc(Br)cc1	-0.112
COCCn1c(SCC(=O)Nc2cc(C)on2)nnc1-c1ccco1	-0.0564
O=C1c2ccccc2C(Nc2ccc3c(c2)OCCO3)N1c1ccccn1 (configuration not stated)	0.814
CC(=O)C(C(C)=O)C(NC(=O)c1cccnc1)(C(F)(F)F)C(F)(F)F	0.0268
N#Cc1nc(-c2ccccc2F)oc1NCCN1CCOCC1	-0.214
CCc1ccc(NC2=CC(=O)CC(c3ccco3)C2)cc1 (configuration not stated)	-0.311
Cc1ccc2nsnc2c1S(=O)(=O)N1CCOCC1	-0.305
COc1cccc(OC)c1C(=O)Nc1ccccc1N1CCCC1	-0.48
Cc1cc(C)cc(NC(=O)Cn2cc3c(n2)CCCCC3)c1	active: 5.95
NC(=O)c1sc2nc3c(c(-c4cccs4)c2c1N)CCCCC3	0.122

SMILES	z-score
COc1cc(NC(=O)COc2ccc(-n3cnnn3)cc2)c(OC)cc1Cl	-0.133
Cc1cc(C)c2oc(C(=O)Nc3nnc(C(C)C)s3)cc(=O)c2c1	-0.0364
COc1cccc(C(=O)N(Cc2ccc(N(C)C)cc2)C2CCS(=O)(=O)C2)c1 (configuration not stated)	-0.438
CCOC(=O)c1ccc(NC(=O)CC2SC(=NC)N(C)C2=O)cc1 (configuration not stated)	0.254
c1coc(-c2ncc[nH]2)c1	0.0775
COc1ccc([N+](=O)[O-])cc1NC1C2CC3CC(C2)CC1C3 (configuration not stated)	-0.573
Cc1cccc(/C(N)=N/OC(=O)c2ccc3c(c2)OCO3)c1	0.579
O=C(c1cccc(C(F)(F)F)c1)N1CCOC12CCN(c1ncc(C(F)(F)F)cc1Cl)CC2	-0.0788
COc1ccc(CN(CCC(c2ccccc2)c2ccc(OC(C)C)cc2)C(=O)CCl)cc1OC (configuration not stated)	-0.0471
CCN1/C(=C2\C(=O)N(C)C(=S)N2C)C=Cc2cc(C)ccc21	-0.149
CCOC(=O)c1nnn(-c2nc(OC)nc(N(C)C)n2)c1-c1ccccc1	-1.4
CCN1CCN(S(=O)(=O)Cc2ccccc2)CC1	-0.322
C/C(=N\NC(=S)Nc1cc(S(=O)(=O)N2CCOCC2)ccc1Cl)c1ccccc1F	0.42
c1cc2c3c(cccc3c1)NC1(CCCCC1)N2	-0.436
Cc1oc2nc(SCC(=O)Nc3ccc(S(N)(=O)=O)cc3)nc(NC(=O)c3ccccc3)c2c1C	-0.289
CCC(=O)N1CCN(C(C)=O)C1c1ccccc1 (configuration not stated)	0.0454
Cc1c(Br)c([N+](=O)[O-])nn1C(C)C(=O)NCc1ccco1 (configuration not stated)	-0.00744
CCCn1nnc(NC(=O)Cc2ccc(Cl)cc2)n1	0.688
Cc1nc(N2CCN(C(=O)c3ccc(Cl)cc3)CC2)c(C#N)c2c1COC(C)(C)C2	-2.62
COc1ccc(C(=O)c2c[nH]c(C(=O)NCc3cccs3)c2)cc1	0.205
COn1c(-c2ccccc2)nc2c1CCc1nonc1-2	0.628
CC(=O)NCCn1c(SCC(=O)c2ccc(Cl)cc2)nc2ccccc2c1=O	0.128
O=C(NCc1ccccn1)NC12CC3CC(CC(C3)C1)C2	0.8

SMILES	z-score
CSc1nnc(C)c(=O)n1COC(=O)COc1ccc2ccccc2c1	-0.401
CN(C)C(=O)c1cn(N(C)c2ncc(C(F)(F)F)cc2Cl)c(=O)c2ccccc12	-0.192
CCC(CC)C(=O)Nc1cccc(C(=O)N2CCCCCC2)c1	0.159
COc1ccc(CNC(=O)COC(=O)c2n[nH]c3ccccc23)cc1OC	-0.278
CC1CCN(C(=O)/C(=C/c2ccccc2Cl)c2ccccc2)CC1	-0.741
O=S(=O)(N/N=C\c1cn(-c2ccccc2)nc1-c1ccccc1)c1ccccc1	-0.177
CC(=O)Nc1ccc(OCC(O)Cn2c(C)nc3ccccc32)cc1 (configuration not stated)	-0.0389
Cc1cc(C)c(NC2=CC(=O)CC(C)(C)C2)c(C#N)c1	1.29
Cc1ccc(S(=O)(=O)Nc2nc3ccccc3nc2N2CCc3ccccc3C2)cc1	0.507
Cc1cc(SCC(=O)Nc2ccccc2C)nc(C)n1	0.67
O=C(c1ccc2[nH]c3c(c2c1)CCCC3)N1CCN(c2ccc(F)cc2)CC1	-0.218
CCCc1cc(C(=O)Nc2cc(C)on2)no1	-0.171
Nc1nc(-c2ccc(Cl)cc2Cl)cn1N	-0.0192
Cc1ccccc1C(=O)NNC1=NCCC1	0.322
C=CCc1cccc(/C=N/NC(=O)C(C)Nc2ccc(C)cc2)c1O (configuration not stated)	0.332
O=C(c1ccc(COc2ccccc2Br)cc1)N1CCCCC1	-0.225
CCC(C)(C)n1nnnc1C(c1cccs1)N1CCN(Cc2ccccc2)CC1 (configuration not stated)	0.0615
O=C(NCc1ccccn1)c1ccc(Cl)c(S(=O)(=O)Nc2ccccc2C(=O)NCc2ccccn2)c1	-0.128
O=C(NCC1(c2ccccc2)CCCC1)c1ccc(Br)o1	-0.309
COc1cccc(/C=N/Nc2nc3ccccc3n3cnnc23)c1O	-0.172
